Sequences with one replicate were seen in a single cluster, so their values are uncertain.
system: ATP; assay: switch fluorescence ratio, 500 uM ATP over buffer (Cy3 cluster intensity, sum of 5 cycles each) (fold (ratio)); higher = stronger signal-on switching upon ATP binding; sequences stand for … in TCGTCGGCAGCGTCAGATGTGTATAAGAGACAGTTTTTTTTTTTTTTTTTTTTTTTTT…TC; settings: aptamer strand: ATP DNA aptamer (quencher-CACCTGGGGGAGTATTGCGGAGGAAGG + anchor), 100 nM annealed; ATP concentration: 500 uM; one replicate
Outline: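 After annealing to 100 nM quencher-labelled ATP aptamer, Cy3-labelled switching-strand clusters on a modified Illumina MiSeq flow-cell were imaged in selection buffer. A second image followed after 15 min with 500 uM ATP at 22 °C, and five such buffer/ATP cycles were done, each separated by NaOH stripping and re-annealing. The fluorescence ratio, averaged per switch-domain sequence, is summed target-cycle over summed buffer-cycle Cy3 intensity per cluster, with clusters outside 100-1000 RFU excluded.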
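Further: ATP exposure 15 min at 22 °C before imaging.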

Sequence	switch fluorescence ratio
ACTTTTCTAG	1.04
ACTTTTGGA	0.974
AGAAAAGGCT	1.4
AGAAAATCGG	0.99
AGAAACACGA	1.05
AGAAACTCGA	1
AGAAAGACGT	1
AGAAATATAC	1
AGAACAATTT	1
AGAACACGGG	0.996
AGAACCGGTT	1.01
AGAACGGCGA	0.982
AGAACGGCTG	1.02
AGAACGTCAT	1
AGAACTTCGC	1.15
AGAACTTGTG	1.05
AGAAGAAAG	1.02
AGAAGACTGA	1.07
AGAAGATGAT	1.02
AGAAGATTAA	0.995
AGAAGCATCA	0.978
AGAAGCGATG	0.985
AGAAGGTAGG	1.01
AGAAGTCCGG	1.01
AGAAGTTTCA	0.982
AGAATAAGGT	1.02

Sequence	switch fluorescence ratio
AGAATAATC	1
AGAATAGTTC	1
AGAATCGAGG	0.985
AGAATCGTGG	1.01
AGAATCGTTC	1.12
AGAATGAAAA	1.08
AGAATGCCTT	0.968
AGAATGGTAG	0.964
AGAATGGTTA	1
AGAATGTTG	0.962
AGAATGTTGG	0.971
AGAATTAAGA	0.998
AGAATTCCCC	0.994
AGAATTCGCC	0.997
AGACAAATGT	0.97
AGACAATTAC	1.23
AGACACACTC	1.35
AGACACCGAC	1.32
AGACCAAGTT	1.8
AGACGATCTA	1.02
AGACGCCCTC	1.12
AGACGCGGCT	1.01
AGACGCTTC	1.11
AGACGGGAAA	1.05
AGACGGGAGT	1.07
AGACGGGGTG	1.02

Sequence	switch fluorescence ratio
AGACGTCCGC	1.2
AGACTATAC	1.56
AGACTATGTT	0.993
AGACTCATGC	1.02
AGACTGTTTT	0.983
AGACTTATTC	1.04
AGACTTCAGG	0.963
AGACTTCTAC	1.08
AGACTTGGTT	0.971
AGAGAACCGG	1.01
AGAGAAGGGC	1.05
AGAGAATAGG	0.998
AGAGACCGCG	0.906
AGAGAGAAAT	0.994
AGAGAGATCA	1.04
AGAGAGTAGG	1.03
AGAGATTTTG	1.05
AGAGCAAGCT	1.14
AGAGCAGCTC	1
AGAGCATGAC	1.26
AGAGCCCA	0.982
AGAGCGTGCC	0.991
AGAGCTAAAT	0.96
AGAGCTGTCC	0.98
AGAGGACGCA	1.28
AGAGGAGCCA	0.965

Sequence	switch fluorescence ratio
AGAGGCAG	0.955
AGAGGCAGCG	1.04
AGAGGCCGAG	1
AGAGGGAAC	0.967
AGAGGGCCA	0.938
AGAGGGCGCA	0.987
AGAGGGTCAC	0.993
AGAGGGTTTA	1.01
AGAGGTGTTC	0.971
AGAGTAGACT	1.05
AGAGTATAAT	1
AGAGTCATAA	0.982
AGAGTTTAGT	1.01
AGATAAACGC	0.987
AGATAAGGGG	0.996
AGATACGTTC	0.956
AGATAGATG	0.988
AGATAGGATG	0.989
AGATAGGTCC	1.05
AGATAGTAAC	0.997
AGATCACTGG	0.99
AGATCAGGGG	1.02
AGATCATTAT	1.03
